# Reference: PubChem BioAssay AID759 (NMMLSC, 2007)
# About 270 (0.14%) of roughly 190,000 compounds were called active. Inconclusive results, whose numbers are uncertain, are shown with a selection of clear calls.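 How the source made its calls: active means GTP binding activity at least 20% away from the 100% baseline, either lowered as inhibitor or raised as activator; inconclusive means flagged as likely green fluorescent, judged across all proteins in the well; inactive means the rest.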
# Target: GTPase HRas (Homo sapiens) (UniProt P01112)
# Chain of UniProt P01112 (P01112 whole entry, looked up): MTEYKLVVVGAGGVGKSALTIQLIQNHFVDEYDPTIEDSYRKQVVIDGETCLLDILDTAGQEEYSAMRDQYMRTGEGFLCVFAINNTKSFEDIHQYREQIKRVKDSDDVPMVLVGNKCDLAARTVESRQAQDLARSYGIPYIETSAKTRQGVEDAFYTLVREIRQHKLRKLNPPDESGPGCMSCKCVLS
# Experiment: HRas wt fluorescent GTP binding changes, either direction – biochemical, wildtype, bead-based flow cytometry, multiplex, primary screen (AID 759);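 further: 0% = unlabeled GTP competition control and 100% = no-compound control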
# Details: GST-Ras wt beads, Bodipy-FL-GTP binding, at 10 µM, actives lie on both sides
row,Structure (SMILES),GTP binding activity
1,Cc1nc2ccccc2n1CC(O)Cn1c2ccccc2c2ccccc21 (stereo unspecified),inconclusive: 103%
2,c1ccc(-c2nnc(SCC3CCCCO3)nc2-c2ccccc2)cc1 (stereo unspecified),inconclusive: 94%
3,N#C/C(=C\C=C\c1ccccc1[N+](=O)[O-])C(=O)NC1CCCCC1,inconclusive: 92%
4,CCN1CCCC1CNC(=O)c1ccc(N2CCCC2=O)cc1 (stereo unspecified),inconclusive: 98%
5,Cc1ccc(N2C(=O)c3ccccc3C2Nc2cccnc2)nc1 (stereo unspecified),inactive: 101%
6,CC(C)c1ccc(C(=O)NN2C(=O)C3CCCCC3C2=O)cc1 (stereo unspecified),inactive: 97%
7,COc1ccc(C)cc1NS(=O)(=O)c1ccc(NC(=O)CN(c2cc([N+](=O)[O-])ccc2C)S(C)(=O)=O)cc1,inconclusive: 102%
8,Cc1cc(C)n(Cc2cnc(N3CCOCC3)s2)n1,inconclusive: 89%
9,Cc1cccc(CSCc2ccc(C(=O)NCC3CCCO3)o2)c1 (stereo unspecified),inactive: 101%
10,CC(=O)N1CCN(C(=O)CCc2c[nH]c3ccccc23)CC1,inconclusive: 108%
11,O=C(NC1CCCC1)C(c1ccncc1)N(C(=O)c1csnn1)C1CCCC1 (stereo unspecified),inactive: 96%
12,Cc1ccc(NC(=S)N2CCC(N(C)CC3CCCO3)CC2)cc1 (stereo unspecified),inactive: 102%
13,COc1ccc(-n2nnnc2SCC(=O)NCc2cccs2)cc1,inconclusive: 95%
14,Nc1c(S(=O)(=O)c2cccs2)c2nc3ccccc3nc2n1/N=C/c1cccc(O)c1,active: 47%
15,O=C(NCCc1ccccc1)C1CCCN(S(=O)(=O)c2cccc3nonc23)C1 (stereo unspecified),inconclusive: 105%
16,C=CCNc1nc(=S)[nH]c2cc(OC)c(OC)cc12,inconclusive: 63%
17,C=CCNc1oc(/C=C/c2ccccc2)nc1C#N,inconclusive: 107%
18,COC(=O)c1cc(NC(=O)c2cccc(Cl)c2)c(=O)oc1/C=C/Nc1cc(C)cc(C)c1,inconclusive: 246%
19,CC(C)CCNC(=O)Cc1ccc(Nc2nc(=S)[nH]c3ccccc23)cc1,active: 75%
20,COc1ccc(N(C(=O)CNC(=O)c2cccs2)C(C(=O)NCC2CCCO2)c2ccccc2)cc1OC (stereo unspecified),inactive: 98%
21,O=C(Cn1nnc2ccccc2c1=O)N1CCOCC1,inactive: 96%
22,Cc1ccc(-n2c(=O)cc(N3CCc4ccccc4C3)[nH]c2=O)cc1,inactive: 107%
23,COc1ccc(CN2CCCC(CNC(=O)c3ccc(F)cc3)C2)c(C)c1C (stereo unspecified),inactive: 98%

row,Structure (SMILES),GTP binding activity
1,O=C(O)CSc1nnc(Nc2ccccc2)n1-c1ccccc1,inconclusive: 92%
2,Cc1cc(-c2nn(-c3ccccc3F)cc2CN2CCN(c3ccccn3)CC2)c(C)s1,inactive: 99%
3,O=C(O)CCNS(=O)(=O)c1ccc2c(c1)CCCC2,inconclusive: 94%
4,CN(/N=C/c1ccc(Br)o1)C1=NS(=O)(=O)c2ccccc21,inactive: 86%
5,COc1cc(C(=O)OCC(=O)NCc2ccccc2)cc(NC(=O)c2ccco2)c1OC,inconclusive: 90%
6,CCOC(=O)c1sc2nc3c(SCC(=O)O)cc(C(=O)c4cc(F)ccc4O)cn3c(=O)c2c1C,inconclusive: 91%
7,O=C(Nc1ccccc1N1CCOCC1)C1CCN(S(=O)(=O)c2ccccc2F)CC1,inactive: 101%
8,COC(=O)CN1C(=S)N(c2ccc(OC)cc2)C(=O)/C1=C/c1ccc(OC)cc1,inconclusive: 95%
9,Cc1cc(=O)[nH]c(N=N/C(=N/Nc2ccc(O)cc2)c2ccccc2)n1,inconclusive: 97%
10,COc1ccccc1-c1nnc(SCC(=O)Nc2nc(-c3ccccc3)cs2)n1C,inconclusive: 91%
11,O=C(CCNC(=O)c1ccccc1)Oc1ccc([N+](=O)[O-])cc1,inconclusive: 95%
12,CCC(=O)NC(=S)NNC(=O)COc1ccc(Br)cc1,inactive: 97%
13,CCN(CC)c1ccc(/C=C(/C#N)c2nc3ccc(C)cc3[nH]2)c(OC(C)C)c1,inconclusive: 119%
14,CCCOc1ccc(Oc2cc(C)nc(SC)n2)nn1,inconclusive: 105%
15,C=CCN1C(=O)/C(=C/C=C2/N(CC)c3ccc(S(=O)(=O)N(C)C)cc3N2CC)SC1=S,active: 79%
16,O=S(=O)(c1ccc(S(=O)(=O)N2CCOCC2)cc1)N1CCCC1,inactive: 101%
17,CCOC(=O)CCCCC(=O)c1[nH]c(=O)[nH]c1CSc1nnc2c3cc(Br)ccc3n(C)c2n1,inconclusive: 82%
18,CC1CCCC(C)N1C(=O)Cn1c(SCC(=O)NCc2ccc3c(c2)OCO3)nc2ccccc21 (stereo unspecified),inconclusive: 103%
19,c1ccc(-c2cnc(-c3cccnc3)o2)cc1,inconclusive: 93%
20,O=C(O)CC(NC(=O)C1c2ccccc2Oc2ccccc21)c1ccc(Cl)cc1 (stereo unspecified),inactive: 100%
21,COc1cccc(N=c2oc3ccc(OC)cc3cc2-c2nc3ccccc3[nH]2)c1,inconclusive: 90%
22,CCOc1ccc(N(CC(=O)Nc2ccc(OC)cc2)S(=O)(=O)c2c(C)noc2C)cc1,inconclusive: 101%
23,Cc1ccccc1C(=O)N1CCN=C1SCc1ccc([N+](=O)[O-])cc1,inactive: 96%

row,Structure (SMILES),GTP binding activity
1,CCOc1ccc(NC(=O)COc2nsnc2N2CCCCC2)cc1,inconclusive: 103%
2,Cc1ccccc1C(=O)Nc1nnc(SC(C)C)s1,inactive: 98%
3,COCCn1c(SCC(=O)NCC2CCCO2)nc2c(c1=O)SC(C)C2 (stereo unspecified),inactive: 102%
4,COC(=O)c1cc(NC(=O)C2CC(=O)NC(=NCc3ccc(OC)cc3)S2)cc(C(=O)OC)c1 (stereo unspecified),inconclusive: 96%
5,COc1ccc(CCNC(=O)CSc2ccc(-c3cccs3)nn2)cc1OC,inactive: 95%
6,O=c1c2ccccc2nc2ccc(NCc3cccs3)nn12,active: 79%
7,CCN(CC)S(=O)(=O)c1ccc(OC)c(NC(=O)c2cc(C)on2)c1,inconclusive: 94%
8,CCOC(=O)c1ccc(NC=C2C(=O)OC3(CCCCC3)OC2=O)cc1,inconclusive: 103%
9,Cc1ccc(C(=O)Nc2oc(-c3ccccc3)cc2C#N)cc1,inconclusive: 87%
10,O=C(N/N=C/c1ccc(Cl)c([N+](=O)[O-])c1)c1cnccn1,inconclusive: 101%
11,O=C(NC(Cc1ccccc1)C(=O)O)/C(=C/c1ccco1)NC(=O)c1cccc(Br)c1 (stereo unspecified),inconclusive: 94%
12,Brc1cc(Br)c2nc(-c3ccc(N4CCOCC4)cc3)ccc2c1,inconclusive: 89%
13,O=C(NCC(=O)N1CCN(S(=O)(=O)/C=C/c2ccccc2)CC1)c1ccccc1F,inactive: 96%
14,COc1cc(CNC2CCCC2)cc(Cl)c1OCc1ccccc1F,inconclusive: 100%
15,O=C(NCc1ccccc1)c1ccc2c(c1)C(=O)N(Cc1ccncc1)C2=O,inconclusive: 107%
16,O=C(Nc1nc2ccc(Cl)cc2s1)c1ccc(Br)o1,inconclusive: 103%
17,C=CCNC(=O)c1ccccc1NC(=O)c1ccccc1SC,inconclusive: 92%
18,O=c1c2nccnc2[nH]c(=S)n1Cc1ccccc1Cl,inconclusive: 92%
19,O=[N+]([O-])c1ccc(N2CCN(S(=O)(=O)c3ccccc3)CC2)cc1NCC1CCCO1 (stereo unspecified),inconclusive: 102%
20,O=C(COc1cc(O)c2c(=O)cc(-c3ccccc3)oc2c1)c1ccc(F)cc1,inconclusive: 96%
21,CCOc1cc2c(cc1/C=C1/NC(=O)N(CC(=O)OC)C1=O)OCO2,inconclusive: 95%
22,Cn1cc(C(=O)NC2CCCCC2)c(=O)c2cc(S(=O)(=O)N3CCCC3)ccc21,inconclusive: 107%
23,COC(=O)c1sccc1-c1ccc(C(N)=O)o1,inconclusive: 95%

row,Structure (SMILES),GTP binding activity
1,c1ccc(-n2nnnc2Sc2n[nH]c(-c3ccncc3)n2)cc1,inconclusive: 94%
2,CC(=O)c1cnc(-c2ccccn2)s1,inconclusive: 93%
3,CC(=O)OC(C(=O)n1nc(C)cc1C)c1ccccc1 (stereo unspecified),inconclusive: 96%
4,COC(=O)CCC/C=C1\SC[C@@H](NC(=O)c2ccccc2)C1NC(C)=O (stereo partly specified),inactive: 96%
5,COc1ccc(NC(=O)Cn2cnc3c(nnn3-c3ccc(C)cc3)c2=O)cc1,inactive: 101%
6,Cc1nonc1CN(C)C(=O)CC1C(=O)NCCN1Cc1cccc(C(F)(F)F)c1 (stereo unspecified),inactive: 95%
7,FC(F)(F)c1ccc(Cl)c(NC(=S)N/N=C/c2ccccc2C(F)(F)F)c1,inconclusive: 93%
8,O=C(COC(=O)c1cncc(Br)c1)Nc1ccc2c(c1)OCO2,inconclusive: 93%
9,C/C(=N\NC(=O)c1ccc(Cl)c(S(=O)(=O)Nc2ccccc2Cl)c1)c1ccncc1,inactive: 87%
10,COc1ccc(C(=O)OCC(=O)NC(=O)NC2CCCC2)c(OC)c1,inactive: 97%
11,COCCNC(=O)c1cc2c(-c3ccc(Cl)cc3)nn(C)c2s1,inconclusive: 93%
12,CCOC(=O)c1ccc(NC(=S)N(CCCN2CCCCCC2)Cc2ccco2)cc1,inconclusive: 105%
13,O=C(Cn1nc(-c2ccccc2)ccc1=O)NCC1CCCO1 (stereo unspecified),inconclusive: 93%
14,Cc1cccc(N2CCN(CCNC(=O)c3cc4c(s3)CS(=O)(=O)C4)CC2)c1C,inconclusive: 104%
15,O=c1ccc(NS(=O)(=O)c2ccccc2)cn1Cc1ccc(Cl)c(Cl)c1,inconclusive: 105%
16,Cc1ccc(Cl)cc1N1CCN(Cc2nnnn2Cc2ccco2)CC1,inconclusive: 102%
17,O=C(COC(=O)c1ccc(Cl)nc1)Nc1ccccc1OC(F)F,inconclusive: 97%
18,Clc1ccc(-c2noc(CN3CCCC3)n2)cc1,inconclusive: 104%
19,NNc1nc(-c2ccccc2)cs1,inconclusive: 111%
20,Cc1nnc(SCC(=O)N2CCOCC2)c2ccccc12,inconclusive: 66%
21,CNC(=S)NNS(=O)(=O)c1ccc(OC)cc1OC,inactive: 98%
22,O=C(CCc1nnc(-c2ccc3c(c2)OCO3)o1)N1CCC(c2ccc(F)cc2)C1 (stereo unspecified),inactive: 87%
